Measurements: PubChem BioAssay AID686978 (National Center for Advancing Translational Sciences (NCATS), 2013)
Hit rate of the full screen: of about 420,000 compounds, about 64,000 (15%) were called active. Inconclusive means that the source gave no clear call. Such entries were picked first, then a sample of the others. The call rests on the fitted dose curve; in most records, active means well fitted inhibition curve with a large enough effect; inconclusive means small, poorly fitted or top-dose-only effect; inactive means flat fitted curve, though single readings scatter. Potencies of inconclusive entries are left out as doubtful fits.

Test: qHTS for Inhibitors of human tyrosyl-DNA phosphodiesterase 1 (TDP1): qHTS in cells in absence of CPT; further: nearly all actives have a fitted effect of over 55% in size
Settings: DT40 Tdp1-/- hTDP1 cells, no CPT, ATP luminescence, 48 h; activity change, negative = growth inhibition: at 46.2 µM (top of the series) unless noted
In short: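 Growth of hTDP1-complemented DT40 Tdp1-knockout cells is measured by ATP luminescence after at least 48 hr compound exposure at 37 °C, with DMSO substituting for the 20 nM CPT used in the parallel screen.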
On the % scale 0 is the no-effect control and ±100 the full control effect; potency means the concentration at half of the fitted maximal effect; tags describe the fitted curve by direction and shape.

Compound | Potency | activity change, negative = growth inhibition
Cc1cc(C)c(NC(=O)Cn2c(=O)n(-c3ccc(CC(=O)NCC4CCCO4)cc3)c(=O)c3ccccc32)c(C)c1 (centres undefined) | inactive | 
Cc1cnc(CNc2cc(-c3ccc(C(=O)N(C)C)cc3)ncn2)cn1 |  | inactive: 20.4%
COc1cccc2sc(N(CCCN(C)C)C(=O)COc3ccc(Cl)cc3)nc12 | inconclusive [inhibitor, partial curve] | 
O=S(=O)(c1ccc2ccccc2c1)N1CCN(C2Cc3ccccc3C2)CC1 | inconclusive [inhibitor, partial curve, poor fit] | 
COC(=O)C1=CO[C@@H](O[C@@H]2O[C@H](CO)[C@@H](O)[C@H](O)[C@H]2O)C2C1C[C@H](O)[C@@H]2C (some centres undefined) |  | inactive: -10.1%
CCCC1=NN(C(=O)Cc2ccc(OC)cc2)C(O)(C(F)(F)F)C1 (centres undefined) | inconclusive [inhibitor, single point] | 
O=C(CCS(=O)(=O)c1ccccc1)NCc1ccccc1 |  | inactive: 9.31%
Cc1cc(CC(C)C)n(-c2nc3ccccc3c(=O)n2OCC(N)=O)n1 | inconclusive [inhibitor, single point] | 
CC(Oc1ccccc1)C(=O)Nc1c2c(nn1-c1ccccc1)CS(=O)(=O)C2 (centres undefined) |  | inactive: -4.27%
CCOc1ccc(Sc2cc(C(=O)NC(C)c3ccccc3)c3ccccc3n2)cc1 (centres undefined) | inconclusive [inhibitor, full curve] | 
O=c1cc(NCCO)c2ccccc2o1 |  | inactive: -0.314%
Cc1ccsc1CN(C(=O)COc1ccc(Br)cc1)C1CCS(=O)(=O)C1 (centres undefined) |  | inconclusive: -32.7% [inhibitor]
NC(=O)c1ccsc1NC(=O)CS(=O)(=O)c1ccc(F)cc1 | inconclusive [inhibitor, single point] | 
Cc1cc(Nc2ccc3c(c2)OCCO3)c2cc(Cl)ccc2n1 | active: 14.6 µM | 
CN(Cc1c(F)cccc1Cl)C(=O)CCc1c[nH]c2ccccc12 | inconclusive [inhibitor, single point] | 
Cc1ccc(CN2C(=O)C(C)Oc3ccc(C)cc32)cc1 (centres undefined) | inconclusive [inhibitor, single point] | 
Cc1cc(C)c2nc(-c3ccccn3)cc(C(=O)NCc3ccc(S(N)(=O)=O)cc3)c2c1 | inconclusive [inhibitor, single point] | 
S=c1[nH]nc(C2CCCCC2)n1/N=C/c1cccc(Cl)c1Cl | active: 23.1 µM | 
O=C(Cn1c(=O)c2cccn2c2ccccc21)NCCc1ccccc1 | inactive | 
CCOc1ccccc1NC(=O)Cn1cc(C(=O)c2cccc(OC)c2)c(=O)c2ccc(C)nc21 | inconclusive [inhibitor, single point] | 
Cc1nn(Cc2ccccc2)c(C)c1CNC(=O)CN=C1NS(=O)(=O)c2ccccc21 | inconclusive [inhibitor, partial curve, poor fit] | 
CCCc1ccc(C(O)c2ncc(-c3cccc(C)c3)[nH]2)cc1 (centres undefined) | inconclusive [inhibitor, single point] | 
O=c1c2cc3ccccc3n2cnn1Cc1ccccc1F | inconclusive [inhibitor, partial curve] | 
CCc1ccc(NC(=O)CSc2nncn2-c2cccnc2)cc1 |  | inactive: -14.1%
O=C(Cn1cc(S(=O)(=O)Cc2ccccc2)c2ccccc21)Nc1ccccc1 |  | inactive: -29.3%

Compound | Potency | activity change, negative = growth inhibition
O=S(=O)(Nc1ccccc1)c1ccc(NS(=O)(=O)c2c(F)cccc2F)cc1 |  | inactive: -1.89%
COc1ccccc1N1CCN(CCCCN2C(=O)c3ccccc3C2=O)CC1 | inactive | 
Cc1c(CCNC(=O)c2ccc(Br)o2)sc2nc(-c3ccc(F)cc3)nn12 | active: 4.61 µM | 
COc1ccc2c(CNCc3cccs3)c(C(=O)O)n(Cc3ccccc3)c2c1 | inconclusive [inhibitor, single point] | 
O=C(CSc1nnc(CNC(=O)c2cccc(F)c2)n1-c1ccccc1)Nc1ccccc1F |  | inactive: -26.4%
CCNC(=S)N/N=C/c1ccccc1[N+](=O)[O-] | inconclusive [inhibitor, single point] | 
CC1CCN(C(=O)C2CCCCN2S(=O)(=O)c2cccc([N+](=O)[O-])c2)CC1 (centres undefined) | inconclusive [inhibitor, single point] | 
COC(=O)c1sc(OC)cc1OCc1ccc(C)cc1 |  | inactive: -15.3%
CCN1CCN(c2nc3c(S(=O)(=O)c4ccc(Br)cc4)nnn3c3ccsc23)CC1 | inconclusive [inhibitor, single point] | 
C=CCN(C)CC/C=C1\c2ccccc2CSc2ccccc21 | inconclusive [inhibitor, single point] | 
CCOC(=O)C1Cn2c(nc3c(c2=O)C(C)(C)Cc2ccccc2-3)S1 (centres undefined) | active: 15.8 µM | 
CC(C)=C1CCC(C)CC1=NNC(N)=S (centres undefined) | active: 20.6 µM | 
O=C(Nc1ccc2oc(-c3ccccc3F)nc2c1)c1cncc(Br)c1 | inconclusive [inhibitor, partial curve] | 
CN(Cc1ccco1)c1nc(-c2ccc3c(c2)OCO3)nc2ccccc12 | inconclusive [inhibitor, full curve, poor fit] | 
CCc1cccc(NC(=O)CSC2=Nc3ccccc3N=C(c3ccc(F)cc3)C2)c1 | active: 13 µM | 
Cc1cccc(N(CC(=O)NCCc2ccccc2)C(=O)CCC(=O)Nc2ccccn2)c1C | inconclusive [inhibitor, single point] | 
CCNC(=O)c1c(NC(=O)C2COc3ccccc3O2)sc2c1CCCC2 (centres undefined) | inconclusive [inhibitor, partial curve] | 
CCOc1cc(CNc2ccc(O)cc2)ccc1OCc1ccc(Cl)cc1Cl | active: 14.6 µM | 
COc1ccc(CN(C)Cc2nc(Cc3cccc(F)c3)no2)c2cccnc12 | active: 2.91 µM | 
Cc1cnc(C(=O)N2CCN(S(=O)(=O)c3ccc4ccccc4c3)CC2)cn1 |  | inactive: -26.7%
O=C1OC(c2ccc(Cl)cc2)/C(=C(/O)c2ccccc2)C1=O (centres undefined) |  | inactive: 0.101%
CCOC(=O)[C@]12CCCC=C1N(Cc1ccc(Cl)cc1Cl)C(=O)[C@H](CC(=O)NCc1ccc(C)o1)C2 | inconclusive [inhibitor, single point] | 
CCOC(=O)C(Sc1cc(C)nc(N)n1)C(C)=O (centres undefined) |  | inactive: -0.184%
Cc1ccc2[nH]c(=O)c(CN(Cc3ccc4c(c3)OCO4)Cc3nnnn3Cc3ccco3)cc2c1 | inconclusive [inhibitor, single point] | 
O=C(c1c(F)cccc1F)N1CCCC(c2nc(-c3cccs3)no2)C1 (centres undefined) | inconclusive [inhibitor, partial curve, poor fit] | 

Compound | Potency | activity change, negative = growth inhibition
Cc1ccc(S(=O)(=O)Nc2ccc3c(c2)C(=O)c2ccccc2-3)cc1 | inconclusive [inhibitor, single point] | 
COc1cc(C2N(c3ccc(Cl)c(Cl)c3)C(=O)C3CCCN32)cc(OC)c1OC (centres undefined) |  | inactive: -13.9%
COc1cc(NC(=O)CCC(=O)OCCCC(F)(F)C(F)(F)F)nc(OC)n1 |  | inactive: -16.2%
Cc1c(N2C(=O)CS/C2=N\N=C\c2ccc(Cl)cc2)c(=O)n(-c2ccccc2)n1C |  | inactive: -3.21%
CSc1nnc2c3cc(F)ccc3n(Cc3ccccc3)c2n1 |  | inactive: -10.1%
Fc1ccc(-c2noc3ncnc(NCCc4ccccc4)c23)cc1 | active: 16.4 µM | 
Cn1c(CNc2ccc(F)cc2)nc2ccccc21 | inconclusive [inhibitor, single point] | 
CCOC(=O)COc1cccc2c(=O)n(CC(=O)NCc3ccc4c(c3)OCO4)ccc12 | active: 1.84 µM | 
CCc1nn(CC(=O)NCCc2ccc(OC)cc2OC)c(=O)c2cc3c(OC)cccc3n12 | inconclusive [inhibitor, partial curve] | 
O=C(c1ccc2ccccc2c1)N1CCN(c2ccc(C(F)(F)F)cn2)CC1 | inconclusive [inhibitor, single point] | 
CCn1c(SCc2ccc(F)cc2)nnc1C1CCN(S(=O)(=O)c2ccc(OC)cc2)CC1 | active: 16.4 µM | 
O=[N+]([O-])c1cccc(N/N=C/c2cc([N+](=O)[O-])ccc2O)c1 | inconclusive [inhibitor, single point] | 
Cc1cc(C)cc(NC(=O)C2CCCCN2S(=O)(=O)c2ccccc2)c1 (centres undefined) | active: 13 µM | 
CCN(CC)S(=O)(=O)c1ccc(C)c(NC(=O)COC(=O)CN2C(=O)NC(C)(C)C2=O)c1 |  | inactive: -13%
Cc1ccc(CCNC(=O)CS(=O)Cc2nc(-c3cccc(C)c3)oc2C)cc1 (centres undefined) | inconclusive [inhibitor, partial curve, poor fit] | 
CCOc1cc(CNC(=O)C2COc3ccccc3C2)cc(OCC)c1OCC (centres undefined) | inconclusive [inhibitor, single point] | 
NC(=O)CSc1ccc(-c2ccc(F)cc2)nn1 |  | inactive: 2.33%
Cc1ccc(S(=O)(=O)Nc2ccccc2-c2nc3ccccc3[nH]c2=O)cc1 | inconclusive [inhibitor, single point] | 
CCOC(=O)C1CCCN(CC(=O)Nc2ccc(C(=O)Nc3ccccc3OC)cc2)C1 (centres undefined) | inconclusive [inhibitor, single point] | 
O=C(Nc1cccnc1)c1ccc(-c2cc(Cl)ccc2Cl)o1 | active: 20.6 µM | 
O=C(NCCc1ccccc1Cl)c1ccc(Cn2c(=O)c3cccn3c3cccnc32)cc1 | active: 10.3 µM | 
COc1ccc(CNC(=O)CCn2cccn2)cc1 |  | inactive: -7.16%
Cc1ccccc1N1CC(c2nc3ccccc3n2CCC2CCCCC2)CC1=O (centres undefined) | active: 10.3 µM | 
Cc1ccccc1C(=O)n1nc(-c2ccco2)nc1NCc1ccc(Cl)cc1 | inconclusive [inhibitor, single point] | 
